Laboratory results taken from PubChem BioAssay AID493208 (National Center for Advancing Translational Sciences (NCATS), 2011).
Screen size: about 44,000 compounds; about 340 (0.77%) were called active. The shares of active, inactive and inconclusive entries below differ from those in the screen. The call rests on the fitted dose curve; in most records, active means well fitted inhibition curve with a large enough effect; inconclusive means small, poorly fitted or top-dose-only effect; inactive means flat fitted curve, though single readings scatter. Potencies of inconclusive entries are left out as doubtful fits.

Experiment: Acumen qHTS Assay for Inhibitors of the mTORC1 Signaling Pathway in MEF (Tsc2-/-, p53-/-) Cells: Sytravon; further: nearly all actives have a fitted effect of over 50% in size
Settings: phospho-rpS6 immunofluorescence/PI, 24 h; series mostly up to 38.3 µM; activity change, negative = inhibition: at the top concentration
From the text: NIH Molecular Libraries Probe Production Centers Network [MLPCN] NIH Chemical Genomics Center [NCGC] MLPCN Grant: NS059428-01 Assay Submitter (PI): Blenis, John; Hoffman, Greg; Harvard University NCGC Assay Overview: The mammalian target of rapamycin (mTOR) is an intracellular serine/threonine kinase Aberrant regulation of mTOR signaling plays a causative role in a number of human diseases, including cancer, benign tumors such as lymphangioleiomyomatosis (LAM) and Tuberous Sclerosis Complex (TSC), and metabolic diseases such as diabetes and obesity. This project aims to identify inhibitors of ribosomal protein S6 (rpS6) phosphorylation. The phosphorylation of rpS6 is a key event downstream of mTOR activation. The assay uses a phospho-specific antibody of phospho-rpS6 to detect inhibitors of mTOR activation. Mutations in the Tsc1 and Tsc2 genes are the underlying genetic lesions responsible for TSC, causing constitutive activation of the mTORC1 pathway and leading to profound effects on cell metabolism. Aberrant metabolism in cancer has recently received significant attention as a target to develop therapeutic agents in the treatment of cancer.1 As Tsc2-/- cells have lost the ability to respond to energy and growth factor deprivation, these cells are unable to properly down regulate cellular biosynthetic processes in response to metabolic stress, and are thus extremely sensitive to glucose deprivation-induced death.2 A central goal of this project is to explore the unique cell survival and metabolic properties of cells with Tsc1 or Tsc2 by screening for compounds that selectively target the Tsc2-/- MEFs by screening both Tsc2-/- and WT MEF cell lines. We hope to better understand these aspects of TSC physiology in order to exploit them for therapeutic benefit.
NCGC Acumen Assay Protocol Summary: For quantitative high throughput analysis of mTORC1 signaling, we developed a cell-based assay for immuno-fluorescence based detection of rpS6 phosphorylation on the Acumen Explorer that will be used a platform for the primary small molecule screen. Mouse embryonic fibroblasts (MEFs) are cultured in 1536-well plates using DMEM + 10% FBS. Twenty-four hrs after plating, test compounds (solubilized in DMSO) are delivered and incubated with the cells for 24 hrs at 37 degree Celsius. Following the incubation, media with compound is aspirated and the cells are fixed in 4% paraformaldehyde (PFA) containing PBS + 0.2% TX-100. Next, PFA is aspirated, cells are washed two times with PBS plus 0.2% TX-100 and the cells are blocked for 1 hr at room temperature (blocking buffer: LiCOR Blocking Buffer plus 0.2% TX-100). […] Cells are washed two times with PBS plus 0.2% TX-100, and stained with 10 uM propidium iodide (PI) for 20-25 minutes for cell number measurement (1:500 dilution of Hoescht staining is also added for IN Cell imaging). The plates are scanned on the Acumen Explorer laser scanning instrument (TTP Labtech) using the 488nm laser for simultaneous excitation of the Alexa-488 and PI. […] The normalized phospho-S6 staining is calculated as the ratio of the integrated Alexa 488 intensity divided by the integrated PI intensity for the single concentration rapamycin control (7.5 nM) and DMSO columns. […] Inhibition of the pathway is defined based on the normalized phospho-S6 intensity in rapamycin treated cells. Active cells are defined as those with a normalized phospho-S6 staining above this threshold, and each treatment is reported as the % positive cells in the well, where thresholds are defined by selecting wells with the highest and lowest signal and differentiating between the % non-active and % active populations. In addition to the pathway specific phospho-S6 endpoint, the number of PI stained cells from the Acumen is recorded as a measure of cell viability. The primary screen was performed with a MEF cell line in a defined genetic background, Tsc2-/-, p53-/- cell line stably transfected with an empty vector control (Tsc2-/- MEF).
Potency means the concentration at half of the fitted maximal effect; tags describe the fitted curve by direction and shape.

SMILES	Potency	activity change, negative = inhibition
O=C(NCCc1ccccc1)c1cc(-c2ccccc2)nc2n[nH]c(-c3ccccc3)c12	inconclusive [falling, single point]	
CCc1ccc2c(c1)c(=O)c(C(=O)c1ccc(C)cc1)cn2CC(=O)Nc1ccc2c(c1)OCCO2		inactive: -8.33%
Fc1ccc(C2=NC(c3cccc(C(F)(F)F)c3)=Nc3ccccc3N2)cc1	inconclusive [falling, single point]	
CC(C)NS(=O)(=O)c1ccc(OCC(=O)N2CCN(c3ccccc3F)CC2)cc1	inconclusive [falling, partial curve, poor fit]	
Cc1ccc(NC(=O)Cn2c(=O)nc(-c3ccccc3F)c3cc(Cl)ccc32)c(Br)c1	inconclusive [falling, single point]	
CCOc1ccc(S(=O)(=O)N(CC(=O)NCCSCc2ccccc2)c2ccccc2)cc1	inconclusive [falling, single point]	
COc1ccc(NC(=O)c2c(C)oc3ccc(O)c(CN4CCCC(C)C4)c23)cc1 (stereo not drawn)	inconclusive [falling, single point]	
N#Cc1c(-c2ccccc2)cc(-c2ccccc2)nc1SCC(=O)Nc1ccc(Cl)cc1	inconclusive [falling, single point]	
COc1cccc(-c2nc(CS(=O)(=O)CC(=O)NCCCc3ccccc3)c(C)o2)c1	inconclusive [falling, partial curve, poor fit]	
Cc1ccc(C)c(NC(=O)Cn2c(=O)n(Cc3ccco3)c(=O)c3ccc(C(=O)NC4CCCC4)cc32)c1	inconclusive [falling, single point]	
COc1cccc(C(=O)NC(c2ccc(Cl)cc2)c2cc(Cl)c3cccnc3c2O)c1 (stereo not drawn)		inactive: -2.48%
FC(F)(F)c1ccc(C2=Nc3ccccc3NC(c3cccs3)=N2)cc1	inconclusive [falling, single point]	
Cc1cccc2c1-c1sc(C(=O)NCCCN3CCN(c4cccc(Cl)c4)CC3)cc1CO2	inconclusive [falling, single point]	
CC(=O)Nc1cccc(-c2nnc(SCC(=O)c3cc([N+](=O)[O-])ccc3Br)o2)c1	inconclusive [falling, partial curve]	
Cc1ccc(S(=O)(=O)c2nc(-c3ccccc3)oc2N2CCCCCC2)cc1	inconclusive [falling, partial curve, poor fit]	
COc1cccc(C(=O)NCC(c2ccc(N(C)C)cc2)N2CCOCC2)c1OC (stereo not drawn)	inconclusive [activator, partial curve, poor fit]	
CCOc1ccc(C(C)C)cc1S(=O)(=O)Nc1cccc(-c2ccc(N3CCOCC3)nn2)c1		inactive: -2.13%
CC(C)(C)c1ccc(OCC(=O)N(Cc2ccco2)Cc2ccccc2F)cc1	inconclusive [falling, single point]	
Cc1cccc(NC(=O)CSc2nc3ccccc3c3nc(CCn4cncc4C)nn23)c1	inconclusive [falling, single point]	
CC(=O)Nc1c(C(=O)Nc2ccccc2F)oc2ccccc12	inconclusive [falling, single point]	
CC(C)(C)c1ccc(S(=O)(=O)N2CCC(c3ccncc3)CC2)cc1	active: 18.5 µM	

SMILES	Potency	activity change, negative = inhibition
CC(=O)c1c(C)oc2ccc(N(C(=O)c3ccncc3)S(=O)(=O)c3ccc(F)cc3C)cc12	inconclusive [falling, single point]	
Cc1nn2c(=O)cc(COC(=O)c3ccc(NC(=O)c4ccc(C(C)(C)C)cc4)cc3)nc2s1		inactive: 3.57%
CCOC(=O)Cn1c(=O)n(C2CCCCC2)c2nc(-c3cccc(C)c3)nc(C(N)=O)c21	inconclusive [falling, single point]	
COc1cccc(CN2CCc3nc(N4CCN(C)CC4)ncc3C2)c1	inconclusive [activator, single point]	
O=C(c1ccccc1Cl)N1CCN(CCc2ccccn2)CC1	inconclusive [falling, partial curve, poor fit]	
CCOc1ccc(-c2cc(CCCC(=O)NCCc3ccc(OCC)c(OCC)c3)no2)cc1		inactive: -10.3%
COc1ccc(NC(=O)c2sc3nc4c(cc3c2N)CCCCCC4)cc1Cl	inconclusive [falling, single point]	
CCc1nn(CC(=O)NCCN(CC)CC)c(=O)c2cc3occc3n12		inactive: -4.33%
Cc1ccccc1NC(=O)Cn1c(=O)n(-c2ccc(CC(=O)NCC3CCCO3)cc2)c(=O)c2ccccc21 (stereo not drawn)	inconclusive [falling, full curve, poor fit]	
CCCCNc1nc2c(S(=O)(=O)c3ccc(Cl)cc3)nnn2c2ccsc12		inactive: 4.9%
CCOc1ccccc1NC(=O)CSc1nnc(N)s1		inactive: 0.99%
CCCN1C(=O)c2[nH]nc(-c3ccccc3O)c2C1c1cccc(OCc2ccccc2)c1 (stereo not drawn)	inconclusive [falling, single point]	
Cc1cc(NC(=O)c2ccccc2Cl)ccc1NC(=O)c1ccccc1		inactive: -3.67%
Cc1ccc(CN2CCC(CNC(=O)c3cc4ccc5cccnc5c4[nH]3)CC2)cc1	inconclusive [falling, single point]	
CCSc1oc(-c2ccc(F)cc2)nc1S(=O)(=O)c1ccc(C)cc1	inconclusive [falling, partial curve]	
CC(C)(C)c1ccc(C(=O)NCC(c2cccs2)S(=O)(=O)c2ccc(F)cc2)cc1 (stereo not drawn)		inactive: -2.82%
COc1cc(Cl)c(C)cc1Nc1nc2ccccc2nc1NS(=O)(=O)c1ccccc1	inconclusive [falling, partial curve, poor fit]	
O=C(NCc1ccco1)C1CCN(C(=O)N2CCOc3ccc(Cl)cc32)CC1	inconclusive [falling, single point]	
Cc1ccc(-c2cn3c(n2)sc2cc(C(=O)NCc4cccs4)ccc23)cc1	inconclusive [falling, single point]	
CCc1ccc(S(=O)(=O)Nc2cc(-c3cn4ccccc4n3)ccc2C)cc1		inactive: -6.54%
CCC1CCCCN1CCCNC(=O)c1ccc2c(c1)N(Cc1cccc(C)c1)C(=O)c1ccccc1S2(=O)=O (stereo not drawn)	inconclusive [falling, single point]	

SMILES	Potency	activity change, negative = inhibition
CCC(=O)N1CCc2cc(Br)cc(S(=O)(=O)N3CCCC(C(=O)Nc4ccc(CC)cc4)C3)c21 (stereo not drawn)	inconclusive [falling, single point]	
CCCCOC(=O)c1ccc(NC(=O)c2ccc3c(c2)CCN3S(=O)(=O)c2ccccc2)cc1	inconclusive [falling, partial curve]	
CCn1nc(-c2ccccc2)c(-c2ccccc2)c(C(=O)Nc2ccccc2C(N)=O)c1=O		inactive: 2.9%
O=C(Nc1ccc(Br)cc1)c1cc(S(=O)(=O)N2CCc3ccccc32)ccc1F	inconclusive [falling, single point]	
Cc1ccc(-c2nc(-c3cccs3)c(-c3cccs3)[nH]2)cc1	inconclusive [falling, partial curve]	
COc1ccc(NC(=O)CN2C(=O)C(=O)c3ccccc32)c(OC)c1	inconclusive [falling, full curve]	
CCOCCCNC(=O)CN1C(=O)CCn2nc(-c3cccn3C)cc21		inactive: 1.13%
CC(C)c1ccc(NC(=O)c2cc(S(=O)(=O)NCCc3ccccc3)ccc2F)cc1	inconclusive [falling, single point]	
CCCN1CCN(CCCNC(=O)c2cc3c(s2)-c2c(C)cccc2OC3)CC1	inconclusive [falling, single point]	
COc1cccc(NC(=O)Cn2c(=O)n(-c3ccc(C)cc3)c(=O)c3ccccc32)c1	inconclusive [activator, partial curve, poor fit]	
Cc1cc(F)ccc1NC(=O)C1CCCN(C(=O)c2cnn(-c3ccccc3)c2-n2cccc2)C1 (stereo not drawn)		inactive: -4.45%
COc1ccc(C)cc1NC(=O)Cn1c(=O)oc2cc(S(=O)(=O)N3CCCCCC3)ccc21	inconclusive [falling, partial curve, poor fit]	
CCCCCCSc1nc(N)c2c3c(sc2n1)CCCC3C (stereo not drawn)	inconclusive [falling, single point]	
Cc1ccc(-n2ncc3c(Nc4ccc(Oc5ccccc5)cc4)ncnc32)cc1		inactive: 8.88%
CCOC(=O)N1CCN(Cc2nc3cc(NC(=O)CC(C)C)ccc3n2C(C)C)CC1	inconclusive [falling, full curve, poor fit]	
Nc1nonc1-c1nc2ccccc2n1CC(=O)Nc1cccc(C(F)(F)F)c1	inconclusive [falling, single point]	
Cc1ccc(NC(=O)Cn2c(=O)c(CNc3ccccc3)cc3cc4c(cc32)OCCO4)cc1	inconclusive [falling, single point]	
O=C(NCCc1csc(-c2ccc(F)cc2)n1)c1c(F)cccc1Cl		inactive: -8.15%
CCc1ccc2c(c1)-c1ccccc1S(=O)(=O)N2CC(=O)N1CCC(C)CC1	inconclusive [falling, single point]	
Cc1nn(CCCC(=O)Nc2cccc(F)c2)c(=O)c2c1sc1ccccc12	inconclusive [falling, full curve, poor fit]	
Cc1cccc(-n2c3nc(=O)[nH]c(=O)c-3cc3c(C)nn(-c4ccccc4)c32)c1C		inactive: 3.05%
